Activity change, negative = inhibition data for 30 compounds are collected here from PubChem BioAssay AID1745853 (National Center for Advancing Translational Sciences (NCATS), 2022).

What all share (assay): Primary Screen for Target Class Profiling of Small Molecule Inhibitors of Methyltransferases
Experiment [1] has as its target Glycine N-methyltransferase (Homo sapiens) (UniProt Q14749). Particulars: purified enzyme, MTase-Glo SAH luminescence; measured here: GNMT inhibition; at 40 µM; stronger effect = lower value. In short, it runs like this: (§1)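 Each enzyme was reacted with SAM and its substrate, with compounds tested once at 40 uM; SAH formed was read by MTase-Glo luminescence.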
The target in experiment [2] is Guanidinoacetate N-methyltransferase (Homo sapiens) (UniProt Q14353). The settings on record: purified enzyme, MTase-Glo SAH luminescence; measured here: GAMT inhibition; at 40 µM; stronger effect = lower value. The essentials:
as §1

The target in experiment [3] is Histamine N-methyltransferase (Homo sapiens) (UniProt P50135). Particulars: purified enzyme, MTase-Glo SAH luminescence; measured here: HNMT inhibition; at 40 µM; stronger effect = lower value. The essentials: as §1
Experiment [4] has as its target Nicotinamide N-methyltransferase (Homo sapiens) (UniProt P40261). The settings on record: purified enzyme, MTase-Glo SAH luminescence; measured here: NNMT inhibition; at 40 µM; stronger effect = lower value. The essentials: as §1
Experiment [5] deals with Phenylethanolamine N-methyltransferase (Homo sapiens) (UniProt P11086). Particulars: purified enzyme, MTase-Glo SAH luminescence; measured here: PNMT inhibition; at 40 µM; stronger effect = lower value. The essentials: as §1

Molecules are shown by their SMILES. Where “and” joins values, the source holds several entries; their conditions need not be identical. Identical values can stand only once. The list shows a part of the results. These are further read-outs of the screen, such as a control signal, another cell line or another target. No call is given for them.
% is scaled to controls: 0 for no effect and ±100 for the full control effect.

For `CCCn1c(=O)c2cc(Cl)ccc2n2c(SCC(=O)NCc3ccccc3)nnc12`, the activity change, negative = inhibition in experiment [1] is -1.34%; in experiment [2], -3.15%; in experiment [3] it was 15%; in experiment [4], -2.61%; in experiment [5] it was -0.451%.

With `COc1cc(O)c2c(c1)/C=C/C[C@H](O)[C@H](O)C(=O)/C=C\C[C@H](C)OC2=O`, the activity change, negative = inhibition is -40.1% in experiment [1]; -8.8% in experiment [2]; 4.58% in experiment [3]; -13.3% in experiment [4]; 3.87% in experiment [5].

As to `Clc1ccc2c(c1)C(N1CCNCC1)=Nc1ccccc1O2`, the activity change, negative = inhibition in experiment [1] is 1.13% and 2.41%; in experiment [2], 3.6% and 13.3%; in experiment [3] it was 10.1% and 0.182%; in experiment [4] it was -14.5% and -12.7%; in experiment [5] it was 2.75% and 7.79%.

`O=S(=O)(c1ccccc1)N1CCC(F)(c2nc(-c3ccncc3)no2)CC1`: the activity change, negative = inhibition is -6.45% in experiment [1]; -11.7% in experiment [2]; -6.26% in experiment [3]; -2.67% in experiment [4]; -16% in experiment [5].

Turning to `COc1ccc(CNC(=O)C2(C)Cn3cnc(C(=O)Nc4ccc(F)cc4Cl)c3C(=O)N2C2CC2)cc1` (stereo not given), the activity change, negative = inhibition turned out to be 0.525% in experiment [1]; 0.032% in experiment [2]; 11.4% in experiment [3]; 0.944% in experiment [4]; 5.88% in experiment [5].

In the case of `CCCOc1ccc2c(-c3ccccc3)cc(=O)oc2c1`, the activity change, negative = inhibition was -3.29% in experiment [1]; 0.799% in experiment [2]; 6.55% in experiment [3]; -10.9% in experiment [4]; -10.6% in experiment [5].

With `Cc1ccc(C)c(CNC(=O)c2ncn3c2C(=O)N(C2CC2)C(C)(C(=O)NCc2ccc(F)cc2)C3)c1` (stereo not given), the activity change, negative = inhibition was -3.3% in experiment [1]; 1.29% in experiment [2]; 4.68% in experiment [3]; 3.37% in experiment [4]; 1.95% in experiment [5].

As for `CC(C)Nc1cc(C(F)(F)F)cc2nc(NC(=O)c3cccnc3)nn12`, the activity change, negative = inhibition was 3.91% in experiment [1]; 7.46% in experiment [2]; 12.3% in experiment [3]; -11.2% in experiment [4]; 4.75% in experiment [5].

Take `CCOc1ccc(NC(=O)c2ncn3c2C(=O)N(C2CC2)C(C)(C(=O)NCc2ccccc2OC)C3)cc1` (stereo not given): the activity change, negative = inhibition is -2.96% in experiment [1]; 0% in experiment [2]; 10.2% in experiment [3]; 5.8% in experiment [4]; 2.14% in experiment [5].

As to `CC1CCCCC1NC(=O)C1(C)Cn2c(cc3sccc32)C(=O)N1Cc1ccccc1F` (stereo not given), the activity change, negative = inhibition is -7.25% in experiment [1]; 2.73% in experiment [2]; -4.82% in experiment [3]; -3.41% in experiment [4]; -6.58% in experiment [5].

As for `O=C(O)CCc1nc(-c2ccccc2)c(-c2ccccc2)o1`, the activity change, negative = inhibition in experiment [1] was -13.8% and -24.3%; in experiment [2] it was 0.312% and 0.324%; in experiment [3] it was 3.58% and -4.83%; in experiment [4], -26.3% and -19.7%; in experiment [5] it was 0.717% and -2.77%.

Turning to `Cc1ncc([N+](=O)[O-])n1CC(O)CN1CCOCC1` (stereo not given), the activity change, negative = inhibition in experiment [1] was 5.82%; in experiment [2], 6.79%; in experiment [3], 10.7%; in experiment [4], -1.78%; in experiment [5], 7.06%.

As for `C#CCOc1ccccc1CN1CCN(c2ncc(F)cn2)CC1`, the activity change, negative = inhibition in experiment [1] was -9.5%; in experiment [2], -4.8%; in experiment [3], -15.6%; in experiment [4], -19%; in experiment [5], -12.8%.

`CCCNC(=O)c1cc2n(n1)CC(C)(C(=O)NCc1ccc(C)cc1)N(C)C2=O` (stereo not given): the activity change, negative = inhibition was 5.78% in experiment [1]; 0.97% in experiment [2]; 3.2% in experiment [3]; 7.03% in experiment [4]; 5.48% in experiment [5].

`O=C1COc2ccc(OCc3cncs3)nc2CN1Cc1ccc(F)cc1`: the activity change, negative = inhibition is -21.8% in experiment [1]; -13.1% in experiment [2]; -19% in experiment [3]; -24.9% in experiment [4]; -13.2% in experiment [5].

Turning to `COc1ccc(Cn2c(=O)c3ccccc3n3c(-c4ccc(OC)cc4)nnc23)cc1`, the activity change, negative = inhibition in experiment [1] is -7.28%; in experiment [2] it was 0%; in experiment [3], 2.04%; in experiment [4], -2.94%; in experiment [5], 0.762%.

With `CC(C)OCCCN1C(=O)c2cc(-c3ccccc3)nn2CC1(C)C(=O)NCc1ccccc1` (stereo not given), the activity change, negative = inhibition in experiment [1] was 5.01%; in experiment [2], 1.16%; in experiment [3] it was 5.36%; in experiment [4], 6.8%; in experiment [5], -0.219%.

Take `CCOC(=O)c1cc2n(n1)CC(C)(C(=O)NCc1ccccc1)N(Cc1ccc(C)cc1)C2=O` (stereo not given): the activity change, negative = inhibition in experiment [1] was -3.63%; in experiment [2], 0.489%; in experiment [3] it was -1.43%; in experiment [4] it was -4.25%; in experiment [5], -3.98%.

Take `CCOCCn1c(=O)[nH]c2cc(C(=O)NCCn3cnnc3)ccc21`: the activity change, negative = inhibition in experiment [1] is -0.346%; in experiment [2] it was -1.26%; in experiment [3], 1.66%; in experiment [4], -4.77%; in experiment [5], -0.527%.

As for `Clc1ccc(-c2nnn3c2nc(Cl)c2ccccc23)cc1`, the activity change, negative = inhibition in experiment [1] is -14.5%; in experiment [2] it was 0.705%; in experiment [3], -0.651%; in experiment [4], 1.63%; in experiment [5], -11.6%.

For `O=C1CN(Cc2cccc(Br)c2)S(=O)(=O)c2ccccc2N1Cc1ccc(F)cc1`, the activity change, negative = inhibition in experiment [1] was found to be 15.8%; in experiment [2], 3.21%; in experiment [3], 13.1%; in experiment [4], 4.96%; in experiment [5] it was 9.59%.

Regarding `O=C(Cn1ccc2cc(S(=O)(=O)N3CCCCC3)ccc21)NC1CCCC1`, the activity change, negative = inhibition is 7.15% in experiment [1]; 0.02% in experiment [2]; 7.6% in experiment [3]; -0.14% in experiment [4]; 2.23% in experiment [5].

As to `CCCn1c(=O)c2ccc(Cl)cc2n2c(=O)n(CC(=O)Nc3cccc(Cl)c3)nc12`, the activity change, negative = inhibition in experiment [1] was 3.14%; in experiment [2] it was 0%; in experiment [3], 5.4%; in experiment [4], 3.05%; in experiment [5], -0.713%.

Consider `CC1(C)[C@@H](O)CC[C@]2(C)[C@H]3CC=C4[C@@H]5C[C@](C)(C(=O)O)CC[C@]5(C)CC[C@@]4(C)[C@]3(C)CC[C@@H]12`, for which the activity change, negative = inhibition in experiment [1] was -17.5%; in experiment [2], -43.2%; in experiment [3], -3.06%; in experiment [4], -91.9%; in experiment [5], -57.1%.

For the compound `Cc1noc2nc3c(c(C(=O)N[C@H]4CC[C@H]4N)c12)CCC3`, the activity change, negative = inhibition in experiment [1] is -0.123%; in experiment [2], 0.178%; in experiment [3] it was 0.87%; in experiment [4] it was 4.22%; in experiment [5], 5.82%.

Regarding `N#Cc1cc(CN2CCCC(C(=O)Nc3cccc(-c4ccc(F)cc4)c3)C2)c[nH]1` (stereo not given), the activity change, negative = inhibition is -7.79% in experiment [1]; -10.3% in experiment [2]; -59.6% in experiment [3]; -13.7% in experiment [4]; -10.4% in experiment [5].

With `c1cc(-c2cc(C3CCNCC3)[nH]n2)ccn1`, the activity change, negative = inhibition in experiment [1] was -4.72%; in experiment [2], -7.58%; in experiment [3], -0.752%; in experiment [4], -16.1%; in experiment [5] it was -14%.

For `CCCn1c(=O)c2cc(Cl)ccc2n2c(SCC(=O)Nc3ccc(OC)cc3)nnc12`, the activity change, negative = inhibition in experiment [1] was 4.23%; in experiment [2], 0%; in experiment [3], 12.2%; in experiment [4], 10.6%; in experiment [5], 7.74%.

`O=C(COC(=O)C(Cc1c[nH]c2ccccc12)NC(=O)c1ccco1)c1ccc(Cl)cc1` (stereo not given): the activity change, negative = inhibition in experiment [1] was -0.414%; in experiment [2] it was 1.76%; in experiment [3] it was -0.552%; in experiment [4] it was -4.3%; in experiment [5], -0.572%.

On to `CCCCN1C(=O)c2ccccc2C(C(=O)NC2CC2)C12CCCCC2` (stereo not given), for which the activity change, negative = inhibition was -8.93% in experiment [1]; -12.2% in experiment [2]; -7.33% in experiment [3]; -17.1% in experiment [4]; -14.3% in experiment [5].
